Assay results published in ChEMBL document CHEMBL4888484, “Replenishing the malaria drug discovery pipeline: Screening and hit evaluation of the MMV Hit Generation Library 1 (HGL1) against asexual blood stage Plasmodium falciparum ,using a nano luciferase reporter read-out” (2022).
Among all 150,000 compounds or so, about 540 (0.36%) showed an effect of 50% or more. The list shows a part of the results.

system: Plasmodium falciparum; assay: Primary screen in NF54 nanoGlo assay, in single point, at 2uM, 72h; a lower Z score goes with more inhibition; type: functional, Erythrocyte; conditions: timepoint 72 hour

SMILES	% Inhibition [%]	Z score
Cc1ocnc1C(=O)NCC1(c2cccc(F)c2F)CCCC1	-6	0.76
O=C(Nc1cccc(F)c1)c1nnc(COCC(=O)N2CCCCC2)s1	-7	1.01
COc1cc(CCNS(=O)(=O)CCO[C@H]2CCOC2)ccc1C	-2	0.34
Cc1nc(-c2ccccc2C)c(N)c(N2CCCC2)n1	-2	0.33
CN(Cc1ccccc1)C(=O)c1ccc2c(c1)N(CC(=O)N1CCCC1)C(=O)CO2	-13	1.68
CCN(Cc1nonc1C)C(=O)c1cc(C)nc2onc(C)c12	-14	1.64
Cc1occc1C(=O)Nc1ccc(Cc2nnc3n2CCC3)cc1	-8	0.76
O=C1c2cccc3cccc(c23)C(=O)N1c1nc2c(ccc3ccccc32)s1	3	-0.42
CC1CCN(C(=O)CCNC(=O)c2ccc(N3CC(=O)NC3=O)cc2)CC1	-14	1.75
O=C1C[C@@H](C(=O)Nc2ccc3c(c2)OCO3)n2ncc(-c3ccc(Cl)cc3)c2N1	-9	0.99
Cc1cnc(C2CCC2)n1CC1CCN(C(=O)c2ccc(C#N)cc2)CC1	-5	0.7
C[C@H]1CS(=O)(=O)N(c2ccc(C(=O)NCc3ccccc3F)c(Cl)c2)C1=O	-10	1.3
COc1ncccc1N(C)C(=O)c1ccc(-c2ccccc2F)s1	-18	1.79
Cc1ncccc1CNCc1nn(C)c2ccccc12	-4	0.62
CC(C)N1CCN(CCCN2CCCC3(CCCCO3)C2C#N)CC1 (stereo unspecified)	1	-0.19
CC(C)(C)OC(=O)N1CC(O)CC1(C)C(=O)NCCc1ccco1 (stereo unspecified)	-8	1.66
Cc1ccc2c(c1)CCN(Cc1nncs1)C2	-2	0.2
C[C@H](NS(=O)(=O)c1cccc(F)c1F)C(N)=O	-7	0.62
Cc1ccnc(NC(=O)[C@@]2(C)CC2(Cl)Cl)c1	2	-0.4
Cc1ccc(S(=O)(=O)N2CCc3[nH]cnc3[C@H]2c2cccnc2)cc1F	-6	1.05
NC(=O)CCCc1nc(-c2c[nH]c3ccccc23)nn1C1CCCCC1	-3	0.44

SMILES	% Inhibition [%]	Z score
CCC(=O)N(Cc1ccc(-c2ccc(Cl)cc2)o1)[C@H]1CCS(=O)(=O)C1	63	-8.22
O=C(c1cncc(N2CCC3(CCCO3)CC2)n1)N1CCOCC1	-4	0.83
O=C(COC(=O)c1ccc(N2C(=O)c3ccccc3C2=O)cc1)NCc1ccc2c(c1)OCO2	-4	0.59
C[C@H](N)C(=O)Nc1ccnn1C1CCCCC1	-8	1.45
C=CCN1CC[C@@]2(CCC1=O)CN(Cc1cccc3nonc13)CCN2C	-11	2.07
COc1ccc(S(=O)(=O)N2CCc3cc4ccccc4nc32)cc1OC	-10	1.11
COc1ncccc1-c1ccc2c(c1)OC[C@@H](N1CCCC1)[C@@H]2O	4	-0.59
O=C1CCN(C(=O)c2coc3c2C(=O)NCCC3)CCCCCN1	-3	0.58
NC(=O)C1CCN(Cc2cccc(OCc3ccc(F)cc3)c2)CC1	-6	0.94
CC(C)S(=O)(=O)N(C)C(=O)c1cccc(C(F)(F)F)c1	-7	1.01
CCOc1ccccc1C(=O)[C@@H]1[C@@H]2CCCN2[C@]2(C(=O)Nc3ccc(C)cc32)[C@@]12C(=O)Nc1ccccc12	6	-0.76
Cn1ccc([C@H]2CCCN(C(=O)Nc3ccc(=O)n(C)n3)C2)n1	-3	0.58
Cc1nc(CNC[C@H](O)c2ccc(Cl)c(F)c2)cs1	10	-1.19
CO[C@H]1CN(C2CCN(C(=O)CCc3c[nH]c4ccccc34)CC2)C12CCOCC2	-2	0.27
O=C1CN(C(=O)Cn2c(-c3ccccc3)cc3ccccc32)c2ccccc2N1	23	-2.66
CN1Cc2ccccc2C[C@H]1C(=O)NCc1c[nH]nc1-c1ccc(Cl)cc1	-12	1.11
Cc1nc(N2CCCC2)ccc1NC(=O)N1CCCC[C@H](C)C1	-10	1.43
Cc1c([C@@H](NC(=O)CCn2cncn2)C(C)C)oc2ccccc12	-9	1.24
CC(C)(C)NC(=O)N1CCC2(CC1)C(=O)N(CC(=O)NC[C@H]1CCCO1)CN2c1ccccc1	-3	0.29
O=C(Nc1ccc(NC(=O)c2ccco2)cc1)Nc1ccc(F)cc1F	-9	1.68
CN(CCN1CCN(c2cccc(Cl)c2)C1=O)C(=O)OC(C)(C)C	3	-0.32

SMILES	% Inhibition [%]	Z score
CCC1(CC)Oc2ccc(NC3CCN(C(C)=O)CC3)cc2O1	3	-0.38
CC(=O)N1CCN(C(=O)C(C)N2CCc3sccc3C2c2ccccc2C)CC1 (stereo unspecified)	2	-0.39
O=S(=O)(C1COC1)N1CCOCC1C1CCCO1 (stereo unspecified)	1	-0.12
Cc1cc(F)ccc1NC(=O)CC(C)(C)CC(=O)O	-3	0.45
COC(=O)[C@@H](NC(=O)Nc1nncs1)C(C)(C)C	5	-0.98
Cc1nc(C2CCCN2C(=O)CC2CCCCC2C)[nH]c1C (stereo unspecified)	29	-3.88
O=C(Cc1nc2ccccc2c(=O)[nH]1)Nc1ccc2c(c1)OCCO2	-3	0.45
Cc1cc(C(=O)N[C@@H](C)c2ccc(C)o2)no1	-2	0.33
Cc1cc2c(cc1S(=O)(=O)N1CCN(C(=O)Cc3cccs3)CC1)OCC(=O)N2	-16	1.63
COCCn1nc(C)c(NC(=O)C(=O)Nc2cc(Br)ccc2F)c1C	0	0.06
CC1(C)C(=O)NCCN1C(=O)NC[C@H]1CCCO1	-12	1.72
Cc1nn(C)cc1C(=O)N(C(C)C)C1CC(C)(C)C1	32	-3.59
C[C@]1(c2cc(F)ccc2F)NC(=O)N(Cc2ccc(Cl)s2)C1=O	4	-0.54
O=C(CN1CCN(c2ccc3c(c2)OCCO3)C1=O)Nc1ccc(C(F)(F)F)cc1	0	0.07
O=C(NCC1CCN(C(=O)c2ccc[nH]2)CC1)c1ccsc1	-22	2.23
OC[C@H]1CCN(c2nnc(-c3ccccc3)cc2C(F)(F)F)C1	-2	0.4
Cc1cc(NC(=O)[C@H]2CCC(=O)NC2)ccc1N1CCCC1=O	-4	0.72
c1ccc(CN2CCCCC2)c(CNc2ccc3nccn3n2)c1	-1	0.13
COc1cc(OC)cc(C(C(=O)O)N2CCC(c3ccccc3)C(C)C2)c1 (stereo unspecified)	-3	0.56
COc1ccc2c(c1)CC[C@H](C(=O)Nc1nccnc1C(C)C)C2	-2	0.34
O=C(NCc1nnc2c(-c3nc(C4CC4)no3)cccn12)C1CCCC1	-11	2.2

SMILES	% Inhibition [%]	Z score
CC[C@](C)(NCc1ccco1)c1nnnn1-c1ccc(Cl)cc1	-11	1.62
COc1ccc(C(=O)N2c3cc(CNC(=O)c4cccc(C)c4)ccc3C[C@@H]2C)cc1	7	-0.83
COC(=O)c1ccc(NCC[C@H](C)NC(=O)OC(C)(C)C)c(C#N)n1	0	0.04
c1ccc2c(c1)N=C(NC1CCCCC1)C1(CCCCCC1)N2	1	-0.12
Cn1ncnc1CCNC(=O)[C@H]1CC[C@@H](O)CC1	-2	0.27
N#CC(NC(=O)C1CCc2[nH]nnc2C1)c1ccc(F)cc1 (stereo unspecified)	33	-3.76
O=C(NCc1cccc(CN2CCCCCC2)c1)c1ccc(NS(=O)(=O)c2cccs2)cc1	0	-0.01
C[C@H](Oc1ccc(Cl)cc1Br)C(=O)Nc1ccccc1C(=O)NCc1ccco1	-28	2.96
CCCCN(Cc1ccccc1)c1ccc(C(=O)O)cc1NS(=O)(=O)c1cccc(C)c1	-12	1.19
COc1ccc(-c2ccc(N3CCN(C(=O)CN(CCc4ccccc4)C(=O)c4cccc(F)c4)CC3)nn2)cc1OC	-10	1.5
CC(C)CN(Cc1cccnc1)C(=O)[C@@H](c1ccc2c(c1)OCO2)N(C)C	-23	2.28
O=C(CCN1CCN(c2ccccc2)CC1)Nc1ccc2c(c1)CCC2	-1	0.14
Cc1cc(CN2CC[C@@H](NC(=O)OC(C)(C)C)C2)no1	-12	1.77
Cc1cccc(-c2cc3n(n2)CCCN(C(=O)c2ccccn2)C3)c1	2	-0.26
Cc1cc(CN2CCN(C(=O)Nc3ccccc3N(C)C3CCCC3)CC2)on1	-9	0.76
Cc1ccc(CN(C)C2CCCCC2)o1	39	-5
O=C(CS(=O)(=O)Cc1ccn(-c2ccccc2)n1)NC1CCCC1	0	-0.01
Cc1noc(C)c1[C@@H](C)CNCc1ccccn1	-7	0.76
COc1cccc(CNS(=O)(=O)c2c(C)sc(C)c2-c2ccno2)c1	-13	2.29
C[C@H]1C[C@@H](CO)CCN1Cc1cnc(-c2ccco2)s1	4	-0.47
